# Results as given in the supplement of paper PMC8728848.
# The list shows a part of the results.
# B1: SP16664B-bot-474-25-474 (Bacteroides ovatus) (protein)
# chain: CEEDIEIGNKIDESSYLASTQLSGLLLDENTNKNSSVIELRNNEYSTNVVFRLSKLPQKGVDVQIAVEESYAAIYNTIHETDFEVFPAANVKIANNGTFVLAPDDKVTPSVKVTLTAFDGMEEDKTYIVPLTVTSSTEGVTFTETSKHMVLLVQDYRNKPNTNKGEDAVQTVLYFEVNDTNPLNALEFLTESGKYFFDHIVLFAANINWDPEKQRVYLANNENVQFLLDNNDKYLQPLRKAGMKIIISILGNHDEAGVAQLSDMGAREFARELAAYCRAYNLDGVAFDDEYSNSPDLSNPWLASPSAYAGSRLMYECKAVMPEKIVSLYNLGNMYSSSLQVIDGIEPGQYCDYAVADYGGAAGPGTGMTLKQCAGMSIELRRGSGNSSESTARSRKEAGYGYYMFFALDPSLYGSQVYRCQSVCKGLYDETLVYPSYYYKKNSTEREAIN
# What was measured:
# Test in all cases: glycan array binding signal (z-score within array); higher = stronger binding
# Conditions in all cases: glycan notation: IUPAC condensed, linker removed
# [1] = biological target: Man(a1-2)Man(a1-3)[Man(a1-2)Man(a1-6)]Man
# Procedure, shortened: (§1)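 Arrays were curated from the Consortium for Functional Glycomics database, 3228 in total, and kept only where the protein sequence was available. Binding is expressed as a within-array Z-score. This score was averaged across arrays of the same protein sequence at different concentrations or buffers and across linkers, and negative values can be read as non-binding.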
# [2] = biological target: Man(a1-2)Man(a1-3)[Man(a1-2)Man(a1-6)]Man(a1-6)[Man(a1-2)Man(a1-2)Man(a1-3)]Man
# Procedure, shortened: as §1
# [3] = biological target: Man(a1-2)Man(a1-3)[Man(a1-2)Man(a1-6)]Man(a1-6)[Man(a1-2)Man(a1-2)Man(a1-3)]Man(b1-4)GlcNAc(b1-4)GlcNAc
# Procedure, shortened: as §1
# [4] = biological target: Man(a1-2)Man(a1-3)[Man(a1-6)]Man(a1-6)[Man(a1-2)Man(a1-3)]Man(b1-4)GlcNAc(b1-4)GlcNAc
# Procedure, shortened: as §1
# [5] = biological target: Man(a1-2)Man(a1-6)[Man(a1-3)]Man(a1-6)[Man(a1-2)Man(a1-2)Man(a1-3)]Man
# Procedure, shortened: as §1
# [6] = biological target: Man(a1-2)Man(a1-6)[Man(a1-3)]Man(a1-6)[Man(a1-2)Man(a1-2)Man(a1-3)]Man(b1-4)GlcNAc(b1-4)GlcNAc
# Procedure, shortened: as §1
# Man(a1-3)[Man(a1-6)]Man = biological target: Man(a1-3)[Man(a1-6)]Man
# Procedure, shortened: as §1
# [7] = biological target: Man(a1-3)[Man(a1-6)]Man(a1-6)[Man(a1-2)Man(a1-3)]Man(b1-4)GlcNAc(b1-4)GlcNAc
# Procedure, shortened: as §1
# [8] = biological target: Man(a1-3)[Man(a1-6)]Man(a1-6)[Man(a1-3)]Man
# Procedure, shortened: as §1
# [9] = biological target: Man(a1-3)[Man(a1-6)]Man(a1-6)[Man(a1-3)]Man(b1-4)GlcNAc(b1-4)GlcNAc
# Procedure, shortened: as §1
# [10] = biological target: Man(a1-3)[Man(a1-6)]Man(b1-4)GlcNAc(b1-4)GlcNAc
# Procedure, shortened: as §1
# [11] = biological target: Man(a1-3)[Man(a1-6)]Man(b1-4)GlcNAc(b1-4)[Fuc(a1-6)]GlcNAc
# Procedure, shortened: as §1
# Man(a1-6)Man = biological target: Man(a1-6)Man
# Procedure, shortened: as §1
# Man(b1-4)GlcNAc = biological target: Man(b1-4)GlcNAc
# Procedure, shortened: as §1
# MurNAc(b1-4)GlcNAc = biological target: MurNAc(b1-4)GlcNAc
# Procedure, shortened: as §1
# Neu5Ac(a2-3)Gal = biological target: Neu5Ac(a2-3)Gal
# Procedure, shortened: as §1
# [12] = biological target: Neu5Ac(a2-3)Gal(b1-3)GalNAc
# Procedure, shortened: as §1
# [13] = biological target: Neu5Ac(a2-3)Gal(b1-3)GalNAc(b1-3)Gal(a1-4)Gal(b1-4)Glc
# Procedure, shortened: as §1
# [14] = biological target: Neu5Ac(a2-3)Gal(b1-3)GalNAc(b1-4)[Neu5Ac(a2-3)]Gal(b1-4)Glc
# Procedure, shortened: as §1
# [15] = biological target: Neu5Ac(a2-3)Gal(b1-3)GalNAc(b1-4)[Neu5Ac(a2-8)Neu5Ac(a2-3)]Gal(b1-4)Glc
# Procedure, shortened: as §1
# [16] = biological target: Neu5Ac(a2-3)Gal(b1-3)GalNAc6S
# Procedure, shortened: as §1
# [17] = biological target: Neu5Ac(a2-3)Gal(b1-3)GlcNAc
# Procedure, shortened: as §1
# [18] = biological target: Neu5Ac(a2-3)Gal(b1-3)GlcNAc(b1-2)Man
# Procedure, shortened: as §1
# [19] = biological target: Neu5Ac(a2-3)Gal(b1-3)GlcNAc(b1-2)Man(a1-3)[GlcNAc(b1-4)][Neu5Ac(a2-3)Gal(b1-3)GlcNAc(b1-2)Man(a1-6)]Man(b1-4)GlcNAc(b1-4)GlcNAc
# Procedure, shortened: as §1
# [20] = biological target: Neu5Ac(a2-3)Gal(b1-3)GlcNAc(b1-2)Man(a1-3)[Neu5Ac(a2-3)Gal(b1-3)GlcNAc(b1-2)Man(a1-6)]Man(b1-4)GlcNAc(b1-4)GlcNAc
# Procedure, shortened: as §1
# [21] = biological target: Neu5Ac(a2-3)Gal(b1-3)GlcNAc(b1-3)Gal(b1-3)GlcNAc
# Procedure, shortened: as §1
# [22] = biological target: Neu5Ac(a2-3)Gal(b1-3)GlcNAc(b1-3)Gal(b1-4)GlcNAc
# Procedure, shortened: as §1
# [23] = biological target: Neu5Ac(a2-3)Gal(b1-3)GlcNAc(b1-3)GalNAc
# Procedure, shortened: as §1
# [24] = biological target: Neu5Ac(a2-3)Gal(b1-3)GlcNAc(b1-4)Gal(b1-4)Glc
# Procedure, shortened: as §1
# [25] = biological target: Neu5Ac(a2-3)Gal(b1-3)GlcNAc(b1-6)GalNAc
# Procedure, shortened: as §1
# [26] = biological target: Neu5Ac(a2-3)Gal(b1-3)GlcNAc6S
# Procedure, shortened: as §1
# [27] = biological target: Neu5Ac(a2-3)Gal(b1-3)[Fuc(a1-4)]GlcNAc
# Procedure, shortened: as §1
# [28] = biological target: Neu5Ac(a2-3)Gal(b1-3)[Fuc(a1-4)]GlcNAc(b1-3)Gal(b1-3)[Fuc(a1-4)]GlcNAc
# Procedure, shortened: as §1
# [29] = biological target: Neu5Ac(a2-3)Gal(b1-3)[Fuc(a1-4)]GlcNAc(b1-3)Gal(b1-4)[Fuc(a1-3)]GlcNAc
# Procedure, shortened: as §1
# [30] = biological target: Neu5Ac(a2-3)Gal(b1-3)[GlcNAc(b1-6)]GalNAc
# Procedure, shortened: as §1
# [31] = biological target: Neu5Ac(a2-3)Gal(b1-3)[Neu5Ac(a2-6)]GalNAc
# Procedure, shortened: as §1
# [32] = biological target: Neu5Ac(a2-3)Gal(b1-3)[Neu5Ac(a2-6)]GlcNAc(b1-3)[Fuc(a1-3)[Gal(b1-4)]GlcNAc(b1-6)]Gal(b1-4)Glc
# Procedure, shortened: as §1
binder,measurement,setting,value
B1,glycan array binding signal (z-score),[1],-0.568
same,glycan array binding signal (z-score),[2],-0.565
same,glycan array binding signal (z-score),[3],-0.1
same,glycan array binding signal (z-score),[4],-0.368
same,glycan array binding signal (z-score),[5],-0.036
same,glycan array binding signal (z-score),[6],-0.063
same,glycan array binding signal (z-score),Man(a1-3)[Man(a1-6)]Man,0.334
same,glycan array binding signal (z-score),[7],-0.142
same,glycan array binding signal (z-score),[8],-0.159
same,glycan array binding signal (z-score),[9],-0.363
same,glycan array binding signal (z-score),[10],-0.436
same,glycan array binding signal (z-score),[11],-0.263
same,glycan array binding signal (z-score),Man(a1-6)Man,0.198
same,glycan array binding signal (z-score),Man(b1-4)GlcNAc,-0.469
same,glycan array binding signal (z-score),MurNAc(b1-4)GlcNAc,-0.181
same,glycan array binding signal (z-score),Neu5Ac(a2-3)Gal,-0.117
same,glycan array binding signal (z-score),[12],-0.351
same,glycan array binding signal (z-score),[13],-0.306
same,glycan array binding signal (z-score),[14],-0.238
same,glycan array binding signal (z-score),[15],-0.168
same,glycan array binding signal (z-score),[16],-0.446
same,glycan array binding signal (z-score),[17],-0.122
same,glycan array binding signal (z-score),[18],-0.044
same,glycan array binding signal (z-score),[19],-0.381
same,glycan array binding signal (z-score),[20],0.283
same,glycan array binding signal (z-score),[21],-0.657
same,glycan array binding signal (z-score),[22],-0.559
same,glycan array binding signal (z-score),[23],-0.544
same,glycan array binding signal (z-score),[24],-0.292
same,glycan array binding signal (z-score),[25],0.067
same,glycan array binding signal (z-score),[26],-0.268
same,glycan array binding signal (z-score),[27],-0.108
same,glycan array binding signal (z-score),[28],0.233
same,glycan array binding signal (z-score),[29],0.654
same,glycan array binding signal (z-score),[30],-0.449
same,glycan array binding signal (z-score),[31],0.02
same,glycan array binding signal (z-score),[32],0.101
